In the antibiotic and cytotoxicity screens of Wong et al. (2023):
Some of the results follow.

These molecules were tested on HepG2 (assay: cytotoxicity call (relative viability < 0.9)). Conditions: 10 µM.
With `C[C@@H]1CN([C@@H](C)CO)C(=O)Cc2cc(NC(=O)Cc3ccccc3)ccc2O[C@H]1CN(C)Cc1ccc(Oc2ccccc2)cc1` the cytotoxicity call was “inactive”.
`C[C@H]1CN([C@@H](C)CO)S(=O)(=O)c2ccc(C#Cc3cccnc3)cc2O[C@@H]1CN(C)CC1CCOCC1` was tested, and the cytotoxicity call was “inactive”.
`C[C@@H]1CCCCO[C@H](CN(C)C(=O)C2CCCCC2)[C@@H](C)CN([C@H](C)CO)C(=O)c2cc(NC(=O)CCCCCC(=O)Nc3ccccc3N)ccc2O1` was tested, and the cytotoxicity call was “inactive”.
`C[C@@H]1CN([C@@H](C)CO)C(=O)c2cccc(NS(=O)(=O)c3cn(C)cn3)c2O[C@@H]1CN(C)C(=O)Nc1ccc2c(c1)OCO2` was tested, and the cytotoxicity call was “inactive”.

What follows are molecules tested on S. aureus RN4220 (assay: growth inhibition call (relative growth <= 0.2)). Conditions: 50 µM.
`C[C@@H]1CN([C@H](C)CO)C(=O)c2cc(NC(=O)Nc3cccc4ccccc34)ccc2O[C@@H]1CN(C)CC1CCCCC1` was tested, and the growth inhibition call was “inactive”.
`C[C@@H]1CCCCO[C@@H](CN(C)C(=O)Cc2ccccc2)[C@@H](C)CN([C@H](C)CO)C(=O)c2cc(NC(=O)Cc3ccccc3)ccc2O1` was tested, and the growth inhibition call was “inactive”.
For `O=C(CCCCCCC(=O)N/N=C/[C@H](O)[C@@H](O)[C@H](O[C@@H]1O[C@H](CO)[C@H](O)[C@H](O)[C@H]1O)[C@H](O)CO)NO`, the growth inhibition call was “inactive”.
`COc1ccc(CN(C)C[C@H]2OCCCC[C@H](C)Oc3ccc(NC(=O)Nc4ccc5c(c4)OCO5)cc3C(=O)N([C@H](C)CO)C[C@@H]2C)cc1` was tested, and the growth inhibition call was “inactive”.
With `O=C1c2ccccc2C(=O)c2c(NCCNCCO)ccc(NCCNCCO)c21` the growth inhibition call was “inactive”.
With `CC(C)CN1C(=O)C[C@@H](N2CCOCC2)C1=O` the growth inhibition call was “inactive”.
With `Cc1noc(C)c1NC(=O)N(C)C[C@H]1Oc2ccc(NC(=O)CCCN(C)C)cc2C(=O)N([C@@H](C)CO)C[C@H]1C` the growth inhibition call was “inactive”.
In the case of `C[C@@H]1CCCCO[C@@H](CN(C)C(=O)Nc2ccc(F)cc2)[C@@H](C)CN([C@H](C)CO)C(=O)c2cc(NC(=O)Nc3ccc(F)cc3)ccc2O1`, the growth inhibition call is reported as “inactive”.
For `CCS(=O)(=O)N1CCOC[C@]2(CN(c3cnn(C)c3)C(=O)CO2)C1`, the growth inhibition call was “inactive”.
For `CC(C)NCC(O)c1ccc(O)c(O)c1.Cl` (centres undefined), the growth inhibition call was “inactive”.
`Cc1ccc(S(=O)(=O)Nc2ccc3c(c2)C(=O)N([C@@H](C)CO)C[C@H](C)[C@H](CN(C)C(=O)Nc2ccccc2)OCCCC[C@H](C)O3)cc1` was tested, and the growth inhibition call was “inactive”.
For `Cc1noc(C)c1S(=O)(=O)N(C)C[C@H]1OCCCC[C@@H](C)Oc2ccc(N(C)C)cc2C(=O)N([C@@H](C)CO)C[C@@H]1C`, the growth inhibition call was “inactive”.
In the case of `COc1ccc(CNc2nc(N3CCCC3CO)ncc2C(=O)NCc2ncccn2)cc1Cl` (centres undefined), the growth inhibition call is reported as “inactive”.
In the case of `COc1ccc(S(=O)(=O)N(C)C[C@@H]2OCCCC[C@@H](C)Oc3ccc(NC(=O)CCC(F)(F)F)cc3C(=O)N([C@H](C)CO)C[C@H]2C)cc1`, the growth inhibition call is reported as “inactive”.
In the case of `C[C@@H]1CN([C@@H](C)CO)C(=O)c2cc(C#C[C@@H](C)O)cnc2O[C@@H]1CN(C)C(=O)CN1CCOCC1`, the growth inhibition call is reported as “inactive”.
With `Cn1c(=O)n2n(c1=O)[C@H](C1CC1)C=C1CN3[C@@H]([C@H](Cc4ccccc4)OC(=O)[C@@H]3COC(=O)NCCCCCC(=O)NO)[C@@H]12` the growth inhibition call was “inactive”.
For `COCC(=O)N(C)C[C@@H]1Oc2cc(-c3ccc(OC)cc3)ccc2S(=O)(=O)N([C@@H](C)CO)C[C@H]1C`, the growth inhibition call was “inactive”.
`O=P(O)(O)C(O)(Cn1ccnc1)P(=O)(O)O` was tested, and the growth inhibition call was “inactive”.
For `COc1c(O)cc(O)cc1O`, the growth inhibition call was “inactive”.
With `C[C@H]1CN([C@@H](C)CO)C(=O)c2cc(C#Cc3ccccn3)cnc2O[C@@H]1CN(C)C(=O)c1cnccn1` the growth inhibition call was “inactive”.
`COCC#Cc1ccc2c(c1)O[C@H](CN(C)S(C)(=O)=O)[C@H](C)CN([C@@H](C)CO)S2(=O)=O` was tested, and the growth inhibition call was “inactive”.
In the case of `O=C(CN1CCOCC1)NCC[C@@H]1CC[C@H](NC(=O)c2ccccc2F)[C@@H](CO)O1`, the growth inhibition call is reported as “inactive”.
In the case of `CN1CCN(C(=O)C[C@H]2C=C[C@@H](NC(=O)Nc3ccccc3F)[C@H](CO)O2)CC1`, the growth inhibition call is reported as “inactive”.
For `COc1ccc(S(=O)(=O)Nc2ccc3c(c2)C(=O)N([C@@H](C)CO)C[C@@H](C)[C@H](CN(C)C(=O)Nc2c(C)noc2C)OCCCC[C@H](C)O3)cc1`, the growth inhibition call was “inactive”.
For `N#Cc1cccc2ccsc12`, the growth inhibition call was “inactive”.
For `C[C@@H]1CCCCO[C@@H](CN(C)S(=O)(=O)c2ccccc2)[C@@H](C)CN([C@H](C)CO)C(=O)c2cc(NC(=O)Nc3cccc4ccccc34)ccc2O1`, the growth inhibition call was “inactive”.
For `COc1ccc(S(=O)(=O)N(C)C[C@@H]2Oc3ccc(N(C)C)cc3CC(=O)N([C@H](C)CO)C[C@@H]2C)cc1`, the growth inhibition call was “inactive”.
In the case of `C[C@H]1CN([C@@H](C)CO)C(=O)Cc2cc(NS(=O)(=O)c3ccccc3)ccc2O[C@H]1CN(C)Cc1ccc(Oc2ccccc2)cc1`, the growth inhibition call is reported as “inactive”.
`C[C@H]1CN([C@@H](C)CO)C(=O)c2cccc(NC(=O)c3cnccn3)c2O[C@@H]1CN(C)C(=O)Nc1ccccc1` was tested, and the growth inhibition call was “inactive”.
For `N#C/C(=C\c1ccc(C(F)(F)F)cc1)c1c[nH]c2ccccc12`, the growth inhibition call was “inactive”.
`Cc1ccc(S(=O)(=O)Nc2ccc3c(c2)C(=O)N([C@H](C)CO)C[C@H](C)[C@@H](CN(C)S(C)(=O)=O)O3)cc1` was tested, and the growth inhibition call was “inactive”.
`Cc1ccccc1S(=O)(=O)N1C[C@@H](O)COC[C@@H]2O[C@H](CC(=O)N3CCC(Cc4ccccc4)CC3)CC[C@H]21` was tested, and the growth inhibition call was “inactive”.
With `C[C@H]1CN([C@@H](C)CO)C(=O)Cc2cc(NC(=O)CCCCCC(=O)Nc3ccccc3N)ccc2O[C@H]1CN(C)Cc1ccc(Cl)c(Cl)c1` the growth inhibition call was “inactive”.
`CC1=NCCN1C(=O)[C@@H](N)CC(C)C` was tested, and the growth inhibition call was “inactive”.
`C[C@@H]1CN([C@H](C)CO)C(=O)c2cc(NS(=O)(=O)c3cn(C)cn3)ccc2O[C@@H](C)CCCCO[C@@H]1CN(C)Cc1ccc(C(F)(F)F)cc1` was tested, and the growth inhibition call was “inactive”.
With `C[C@@H]1CCCCO[C@@H](CN(C)C(=O)CCC(F)(F)F)[C@@H](C)CN([C@@H](C)CO)C(=O)c2cc(NC(=O)NC3CCCCC3)ccc2O1` the growth inhibition call was “inactive”.
With `C[C@@H]1CN([C@@H](C)CO)C(=O)Cc2cc(NC(=O)Cc3ccccc3)ccc2O[C@H]1CN(C)Cc1ccc(Oc2ccccc2)cc1` the growth inhibition call was “inactive”.
With `C[C@H]1CN([C@@H](C)CO)S(=O)(=O)c2ccc(C#Cc3cccnc3)cc2O[C@@H]1CN(C)CC1CCOCC1` the growth inhibition call was “inactive”.
For `C[C@@H]1CCCCO[C@H](CN(C)C(=O)C2CCCCC2)[C@@H](C)CN([C@H](C)CO)C(=O)c2cc(NC(=O)CCCCCC(=O)Nc3ccccc3N)ccc2O1`, the growth inhibition call was “inactive”.
For `C[C@@H]1CN([C@@H](C)CO)C(=O)c2cccc(NS(=O)(=O)c3cn(C)cn3)c2O[C@@H]1CN(C)C(=O)Nc1ccc2c(c1)OCO2`, the growth inhibition call was “inactive”.
